Patent US5955421A, “Peptides containing D-2-alkyl-Tryptophan” (priority 1990, dated 1999)
Where two headings read alike, the source gives them in different places. At least one peptide structure holds a part that was inferred or is arguable (an end, a ring closure or a residue). Square brackets hold non-standard residues; d marks the D form. Peptide text beside a SMILES is read from it. dTrp(2-Me) = Cc1[nH]c2ccccc2c1C[C@@H](N)C(=O)O; Aib = CC(C)(N)C(=O)O

Columns and labels:
[1] = test system: Human heart tissue; assay: Inhibition of 125I-Tyr-Ala-HEXARELIN binding to human heart tissue membranes; details: for inhibition of 125I-Tyr-Ala-HEXARELIN specifically bound / specific binding of 125I-Tyr-Ala-HEXARELIN / IC50 value: heart
Experimental: (§1) Tissue membranes (0.1 mg protein) obtained from the heart and hypothalamus of two different adult subjects were incubated in triplicate with a subsaturating concentration (34 pM, about 48,000 cpm, for heart tissue and 42 pM, about 60,000 cpm for hypothalamus tissue) of ^125 I-Tyr-Ala-HEXARELIN for 40 min at 0° C. in the absence and in the presence of increasing concentrations of the indicated unlabelled peptides. The value in parentheses represents the % of inhibition of ^125 I-Tyr-Ala-HEXARELIN specifically bound.
(§2) The specific binding of ^125 I-Tyr-Ala-HEXARELIN/0.1 mg membrane protein is expressed as a percent of total radioactivity added.

[2] = test system: Human hypothalamus tissue; assay: Inhibition of 125I-Tyr-Ala-HEXARELIN binding to human hypothalamus tissue membranes; details: for inhibition of 125I-Tyr-Ala-HEXARELIN specifically bound / specific binding of 125I-Tyr-Ala-HEXARELIN / IC50: hypothalamus
Experimental: as §1, §2

Cc1[nH]c2ccccc2c1C[C@@H](NC(=O)[C@@H](Cc1c(C)[nH]c2ccccc12)NC(=O)C(C)(C)N)C(N)=O [Example 19, Aib-D-2-Mrp-D-2-Mrp-NH2] (H-[Aib]-[dTrp(2-Me)]-[dTrp(2-Me)]-NH2)
inhibition of 125I-Tyr-Ala-HEXARELIN specifically bound ([1]; 0.1 nM peptide, subject 1): 0% | specific binding of 125I-Tyr-Ala-HEXARELIN ([1]; 0.1 nM peptide, subject 1): 25.1% of total radioactivity | inhibition of 125I-Tyr-Ala-HEXARELIN specifically bound ([1]; 0.1 nM peptide, subject 2): 0% | specific binding of 125I-Tyr-Ala-HEXARELIN ([1]; 0.1 nM peptide, subject 2): 24.5% of total radioactivity | inhibition of 125I-Tyr-Ala-HEXARELIN specifically bound ([1]; 1 nM peptide, subject 1): 1% | specific binding of 125I-Tyr-Ala-HEXARELIN ([1]; 1 nM peptide, subject 1): 24.9% of total radioactivity | inhibition of 125I-Tyr-Ala-HEXARELIN specifically bound ([1]; 1 nM peptide, subject 2): 0% | specific binding of 125I-Tyr-Ala-HEXARELIN ([1]; 1 nM peptide, subject 2): 24.5% of total radioactivity | inhibition of 125I-Tyr-Ala-HEXARELIN specifically bound ([1]; 10 nM peptide, subject 1): 1% | specific binding of 125I-Tyr-Ala-HEXARELIN ([1]; 10 nM peptide, subject 1): 24.9% of total radioactivity | inhibition of 125I-Tyr-Ala-HEXARELIN specifically bound ([1]; 10 nM peptide, subject 2): 3% | specific binding of 125I-Tyr-Ala-HEXARELIN ([1]; 10 nM peptide, subject 2): 24.0% of total radioactivity | inhibition of 125I-Tyr-Ala-HEXARELIN specifically bound ([1]; 100 nM peptide, subject 1): 2% | specific binding of 125I-Tyr-Ala-HEXARELIN ([1]; 100 nM peptide, subject 1): 24.7% of total radioactivity | inhibition of 125I-Tyr-Ala-HEXARELIN specifically bound ([1]; 100 nM peptide, subject 2): 2% | specific binding of 125I-Tyr-Ala-HEXARELIN ([1]; 100 nM peptide, subject 2): 24.1% of total radioactivity | inhibition of 125I-Tyr-Ala-HEXARELIN specifically bound ([1]; 1000 nM peptide, subject 1): 3% | specific binding of 125I-Tyr-Ala-HEXARELIN ([1]; 1000 nM peptide, subject 1): 24.4% of total radioactivity | inhibition of 125I-Tyr-Ala-HEXARELIN specifically bound ([1]; 1000 nM peptide, subject 2): 3% | specific binding of 125I-Tyr-Ala-HEXARELIN ([1]; 1000 nM peptide, subject 2): 24.0% of total radioactivity | IC50 value ([1]; subject 1): inactive | IC50 value ([1]; subject 2): inactive | binding to heart tissue ([1]; human heart tissue): no binding to heart tissue | binding to hypothalamus tissue ([2]; human hypothalamus tissue): potent binding to hypothalamus tissue | inhibition of 125I-Tyr-Ala-HEXARELIN specifically bound ([2]; 0.1 nM peptide, subject 1): 11% | specific binding of 125I-Tyr-Ala-HEXARELIN ([2]; 0.1 nM peptide, subject 1): 9.8% of total radioactivity | inhibition of 125I-Tyr-Ala-HEXARELIN specifically bound ([2]; 0.1 nM peptide, subject 2): 13% | specific binding of 125I-Tyr-Ala-HEXARELIN ([2]; 0.1 nM peptide, subject 2): 9.0% of total radioactivity | inhibition of 125I-Tyr-Ala-HEXARELIN specifically bound ([2]; 1 nM peptide, subject 1): 25% | specific binding of 125I-Tyr-Ala-HEXARELIN ([2]; 1 nM peptide, subject 1): 8.3% of total radioactivity | inhibition of 125I-Tyr-Ala-HEXARELIN specifically bound ([2]; 1 nM peptide, subject 2): 32% | specific binding of 125I-Tyr-Ala-HEXARELIN ([2]; 1 nM peptide, subject 2): 7.0% of total radioactivity | inhibition of 125I-Tyr-Ala-HEXARELIN specifically bound ([2]; 10 nM peptide, subject 1): 65% | specific binding of 125I-Tyr-Ala-HEXARELIN ([2]; 10 nM peptide, subject 1): 3.9% of total radioactivity | inhibition of 125I-Tyr-Ala-HEXARELIN specifically bound ([2]; 10 nM peptide, subject 2): 75% | specific binding of 125I-Tyr-Ala-HEXARELIN ([2]; 10 nM peptide, subject 2): 3.6% of total radioactivity | inhibition of 125I-Tyr-Ala-HEXARELIN specifically bound ([2]; 100 nM peptide, subject 1): 91% | specific binding of 125I-Tyr-Ala-HEXARELIN ([2]; 100 nM peptide, subject 1): 1.0% of total radioactivity | inhibition of 125I-Tyr-Ala-HEXARELIN specifically bound ([2]; 100 nM peptide, subject 2): 98% | specific binding of 125I-Tyr-Ala-HEXARELIN ([2]; 100 nM peptide, subject 2): 0.2% of total radioactivity | inhibition of 125I-Tyr-Ala-HEXARELIN specifically bound ([2]; 1000 nM peptide, subject 1): 100% | specific binding of 125I-Tyr-Ala-HEXARELIN ([2]; 1000 nM peptide, subject 1): 0% of total radioactivity | inhibition of 125I-Tyr-Ala-HEXARELIN specifically bound ([2]; 1000 nM peptide, subject 2): 99% | specific binding of 125I-Tyr-Ala-HEXARELIN ([2]; 1000 nM peptide, subject 2): 0.1% of total radioactivity | IC50 ([2]; mean of two subjects, read-out: mean IC50 value): 4.8 nM | IC50 ([2]; subject 1, read-out: IC50 value): 6 nM | IC50 ([2]; subject 2, read-out: IC50 value): 3.6 nM
